Results reported in patent US20260216242A1 (ALMAC DISCOVERY, published 2026).

T1: human ALPL on CHO cells (human, UniProt P05186 18-501)
T1 construct: whole, on cells; also called CHO-ALPL
T1 sequence (looked up): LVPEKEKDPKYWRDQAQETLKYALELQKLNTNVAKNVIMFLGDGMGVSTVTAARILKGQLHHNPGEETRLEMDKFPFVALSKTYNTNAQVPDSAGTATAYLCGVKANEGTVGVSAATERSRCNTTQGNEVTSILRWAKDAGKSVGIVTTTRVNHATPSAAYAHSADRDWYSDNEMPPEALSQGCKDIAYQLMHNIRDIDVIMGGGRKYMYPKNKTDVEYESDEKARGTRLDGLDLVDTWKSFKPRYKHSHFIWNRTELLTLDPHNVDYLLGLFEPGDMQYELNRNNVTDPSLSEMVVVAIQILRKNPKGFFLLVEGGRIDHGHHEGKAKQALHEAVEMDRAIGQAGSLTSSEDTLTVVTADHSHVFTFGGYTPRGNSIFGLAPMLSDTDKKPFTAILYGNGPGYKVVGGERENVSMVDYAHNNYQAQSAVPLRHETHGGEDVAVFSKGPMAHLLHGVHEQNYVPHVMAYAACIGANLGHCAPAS

T2: ALPI His homodimer (human, UniProt P09923 20-503)
T2 construct: Whole entry with His tag; used in ELISA and BLI; also called hALPI
T2 sequence: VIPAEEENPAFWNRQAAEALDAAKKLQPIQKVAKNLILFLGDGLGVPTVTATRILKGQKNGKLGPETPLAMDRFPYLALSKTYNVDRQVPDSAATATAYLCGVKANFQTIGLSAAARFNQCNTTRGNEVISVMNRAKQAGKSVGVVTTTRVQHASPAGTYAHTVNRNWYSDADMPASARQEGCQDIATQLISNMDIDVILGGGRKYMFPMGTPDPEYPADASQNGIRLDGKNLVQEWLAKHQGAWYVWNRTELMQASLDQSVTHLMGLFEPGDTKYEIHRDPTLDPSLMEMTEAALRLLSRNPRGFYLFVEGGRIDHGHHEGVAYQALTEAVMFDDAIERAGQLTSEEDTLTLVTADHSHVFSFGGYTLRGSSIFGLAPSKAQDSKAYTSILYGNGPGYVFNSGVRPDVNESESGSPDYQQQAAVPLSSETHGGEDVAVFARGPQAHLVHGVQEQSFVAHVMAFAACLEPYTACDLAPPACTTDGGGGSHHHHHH

T3: Human ALPL (leucine zipper) (human)
T3 construct: Whole entry: fused with a cysteine stabilised leucine zipper and His tag; also called hALPL
T3 chain: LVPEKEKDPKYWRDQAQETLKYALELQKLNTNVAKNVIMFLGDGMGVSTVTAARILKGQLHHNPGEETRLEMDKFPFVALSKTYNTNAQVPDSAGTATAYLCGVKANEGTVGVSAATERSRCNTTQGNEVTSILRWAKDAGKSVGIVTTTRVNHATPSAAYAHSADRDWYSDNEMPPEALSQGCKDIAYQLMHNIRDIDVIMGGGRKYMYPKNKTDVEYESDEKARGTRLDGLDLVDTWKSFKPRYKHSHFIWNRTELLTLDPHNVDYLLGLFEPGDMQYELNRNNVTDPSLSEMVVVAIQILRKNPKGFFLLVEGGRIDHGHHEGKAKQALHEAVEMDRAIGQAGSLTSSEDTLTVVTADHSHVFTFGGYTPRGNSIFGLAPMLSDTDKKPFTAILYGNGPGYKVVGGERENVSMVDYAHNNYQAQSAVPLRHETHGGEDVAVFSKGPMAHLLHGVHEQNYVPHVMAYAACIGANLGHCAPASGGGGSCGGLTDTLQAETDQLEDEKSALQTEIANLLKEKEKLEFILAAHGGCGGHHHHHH

T4: Human ALPP (leucine zipper) (human)
T4 construct: Whole entry: ALPP fused with a cysteine stabilised leucine zipper and His tag; also called hALPP
T4 chain: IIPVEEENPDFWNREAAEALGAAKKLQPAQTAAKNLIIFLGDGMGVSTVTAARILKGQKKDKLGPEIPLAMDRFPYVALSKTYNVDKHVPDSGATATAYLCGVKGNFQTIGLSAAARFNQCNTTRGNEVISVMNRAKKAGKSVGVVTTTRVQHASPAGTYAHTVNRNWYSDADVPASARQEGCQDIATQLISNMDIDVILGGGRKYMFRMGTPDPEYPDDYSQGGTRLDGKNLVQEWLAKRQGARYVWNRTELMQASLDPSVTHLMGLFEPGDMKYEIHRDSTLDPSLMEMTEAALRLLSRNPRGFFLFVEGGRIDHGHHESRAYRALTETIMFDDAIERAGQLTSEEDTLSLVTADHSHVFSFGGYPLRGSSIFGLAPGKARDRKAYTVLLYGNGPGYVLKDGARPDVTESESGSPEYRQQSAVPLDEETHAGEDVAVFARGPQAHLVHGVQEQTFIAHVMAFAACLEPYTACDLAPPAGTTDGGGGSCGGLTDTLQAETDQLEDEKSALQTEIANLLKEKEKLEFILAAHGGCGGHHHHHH

T5: Human ALPPL2 (leucine zipper) (human)
T5 construct: Whole entry: fused with a cysteine stabilised leucine zipper and His tag; also called hALPPL2
T5 chain: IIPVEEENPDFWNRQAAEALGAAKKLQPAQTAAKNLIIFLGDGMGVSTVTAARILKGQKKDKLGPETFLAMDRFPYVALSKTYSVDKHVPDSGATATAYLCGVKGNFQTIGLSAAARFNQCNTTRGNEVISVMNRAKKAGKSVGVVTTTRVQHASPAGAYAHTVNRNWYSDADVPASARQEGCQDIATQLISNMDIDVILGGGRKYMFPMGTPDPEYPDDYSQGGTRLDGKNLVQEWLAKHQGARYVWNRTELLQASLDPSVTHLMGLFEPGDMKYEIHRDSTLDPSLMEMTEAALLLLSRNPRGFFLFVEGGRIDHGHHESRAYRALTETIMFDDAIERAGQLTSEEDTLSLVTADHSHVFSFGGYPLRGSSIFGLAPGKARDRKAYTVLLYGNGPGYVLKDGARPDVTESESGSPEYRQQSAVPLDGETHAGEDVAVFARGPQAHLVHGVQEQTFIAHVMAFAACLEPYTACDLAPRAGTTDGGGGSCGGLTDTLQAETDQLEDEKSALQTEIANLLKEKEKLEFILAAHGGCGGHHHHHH

T6: Rhesus monkey ALPP (leucine zipper) (rhesus monkey)
T6 construct: Whole entry: cysteine-stabilised leucine zipper fusion; also called rmALPP; NCBI #XP_028687061
T6 chain: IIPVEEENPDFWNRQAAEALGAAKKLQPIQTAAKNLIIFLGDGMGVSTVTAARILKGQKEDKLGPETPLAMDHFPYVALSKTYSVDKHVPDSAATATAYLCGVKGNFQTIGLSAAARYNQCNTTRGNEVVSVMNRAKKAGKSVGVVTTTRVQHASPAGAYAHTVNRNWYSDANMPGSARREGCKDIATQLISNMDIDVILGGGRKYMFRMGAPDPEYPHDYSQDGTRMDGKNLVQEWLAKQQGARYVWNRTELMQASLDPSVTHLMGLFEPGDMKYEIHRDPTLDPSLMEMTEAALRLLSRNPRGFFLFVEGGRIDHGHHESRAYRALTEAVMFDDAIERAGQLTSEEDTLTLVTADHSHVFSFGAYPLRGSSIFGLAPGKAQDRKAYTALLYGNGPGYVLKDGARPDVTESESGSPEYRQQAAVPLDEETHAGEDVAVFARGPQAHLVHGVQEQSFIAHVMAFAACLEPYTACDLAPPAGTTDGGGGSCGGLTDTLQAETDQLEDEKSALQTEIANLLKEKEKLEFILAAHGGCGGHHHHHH

B1: D10 (G4S)1 hFc (S239C) (Fc fusion)
chain: QVQLVESGGGLVQPGGSLRLSCAASGSIFSVNTMGWYRQAPGKQRDLVAVATSGGTIHYADSVKGRFTISRDNAKNTVYLQMNSLKPEDTAVYYCNLVVPYGMIAGDHDYWGQGTKVTVSSGGGGS[human IgG1 Fc with changes not spelt out]
notes: Short linker; also called D10-hFc (S239C) [G4S]1; #373
B2: A05-hFc (S239C) (Fc fusion)
chain: QVQLVESGGGLVQAGASLTLSCAASGFTFNTRSIVWFRQAPGKEREAVSCISKVAGSTYYGDSVQGRFSSSTDNAKNTVSLQMNSLKPEDTAVYTCAASFAPNCYGWSVAANMEYWGEGTMVTVSSGGGGSGGGGSGGGGS[human IgG1 Fc with changes not spelt out]
notes: VHH-[G4S]3-human IgG1 Fc S239C; built from parts; also called #433

Key:
human ALPP on CHO cells = target: T7, human ALPP on CHO cells (human, UniProt P05187 23-506); test: flow cytometry, CHO cells, KDapp
T7 construct: whole, on cells; also called CHO-ALPP
Protocol: (§1) Cell surface binding of test agents to hALPP isoforms was characterized in four CHO-ALPP isoform transfectant cell lines (CHO-ALPP, CHO-ALPPL2, CHO-ALPI and CHO-ALPL) and the resulting KDapp values determined. Adherent cells were detached from tissue culture flasks by incubating with 0.1% EDTA/PBS solution at 37° C. for ~10 minutes or until cells detached easily. Cells were re-suspended in ice-cold PBS/2% FCS in 15 ml tubes and centrifuged at 1700 rpm for 5 mins at 4° C. Supernatant was removed and the cell pellet re-suspended in PBS/2% FCS. […] Cells were incubated with 100 μl of test agents at a range of concentrations, plus controls for 1 hr on ice. The sample plate was centrifuged at 1700 rpm for 5 mins at 4° C. The supernatant was removed, and a wash performed by re-suspending the cell pellets in 0.25 mL of ice-cold PBS/2% FCS using a multichannel pipette. Samples were again centrifuged at 1700 rpm for 5 min at 4° C. Supernatant was removed and two further washes performed as described. After the final wash and centrifugation step, excess liquid was removed by blotting the plate on tissue paper. Binding of VHH-hFc agents was determined by adding 100 μl of Fitc-anti-human Ab (ThermoFisher) and incubating for 30 mins on ice in the dark. Wash steps were performed as described previously. All cell pellets were finally re-suspended in 0.28 ml of ice-cold PBS/2% FCS and left on ice in the dark prior to analysis on a Merck-Millipore Guava EasyCyte HT or Thermo Fisher Attune N×T flow cytometer.

[1] = target: T8, human ALPPL2 on CHO cells (human, UniProt P10696 20-503); test: flow cytometry, CHO cells, KDapp
T8 construct: whole, on cells; also called CHO-ALPPL2
Protocol: as §1

human ALPL on CHO cells = target: T1, human ALPL on CHO cells; test: flow cytometry, CHO cells stably expressing human ALPL; VHH-hFc detected with FITC anti-human Ab
Protocol: VHH-hFc proteins were assessed for human ALPP, ALPPL2, ALPI and ALPL cell-surface binding by flow cytometry. Binders were screened on CHO cells stably expressing human ALPP, ALPPL2, ALPI or ALPL.
as §1

ALPI His homodimer = target: T2, ALPI His homodimer; test: BLI, antigen immobilised
Protocol: (§2) Binding kinetics were determined using the Biolayer Interferometry (BLI) Octet K2 or R4 system (Sartorius). […] For KD apparent measurements, the ALPP proteins were immobilised in sodium acetate pH5 buffer to AR2G sensors using amine coupling. To measure 1:1 interactions, AHC biosensors were used to immobilise Fc-fused proteins. All assays were conducted in HBS-EP with a plate temperature of 25° C. Ka (M⁻¹s⁻¹), Kd (s⁻¹) and KD (nM) values were determined using Octet Data Analysis High Throughput software (Sartorius) for Biolayer Interferometry.

[2] = target: T3, Human ALPL (leucine zipper); test: BLI, antigen immobilised
Protocol: as §2

[3] = target: T4, Human ALPP (leucine zipper); test: BLI, antigen immobilised, KD apparent
Protocol: as §2

[4] = target: T5, Human ALPPL2 (leucine zipper); test: BLI, antigen immobilised, KD apparent
Protocol: as §2

[5] = target: T6, Rhesus monkey ALPP (leucine zipper); test: BLI, antigen immobilised, KD apparent
Protocol: as §2
To assess cross-species reactivity of the ALPP/ALPPL2 targeting VHH-hFc fusions, BLI was conducted using mouse ALPPL2 (NCBI #NP_031459), rhesus monkey ALPP (NCBI #XP_028687061) and cynomolgus monkey ALPP (NCBI #XP_045223825). […] BLI was conducted as described above.

Binder	Kd (human ALPP on CHO cells)	Kd [1]	binding result (human ALPL on CHO cells)	binding result (ALPI His homodimer)	binding result [2]	Kd [3]	koff [3]	kon [3]	Kd [4]	koff [4]	kon [4]	Kd [5]	koff [5]	kon [5]
B1	2.7 nM	6.2 nM	no binding (tested: 350 nM)											
B2				no binding	no binding	< 0.01 nM	< 1e-07 s⁻¹	304000 M⁻¹ s⁻¹	< 0.01 nM	< 1e-07 s⁻¹	526000 M⁻¹ s⁻¹	< 0.01 nM	< 1e-07 s⁻¹	562000 M⁻¹ s⁻¹
